Source: PMC13534789, “Molecular Glue Degraders Enhance CAPRIN1‐Dependent Lysosomal Degradation of APP and Reduce Amyloid β in Alzheimer's Disease” (Advanced Science, 2026)

Target: T1, 10xHis-CAPRIN1 (recombinant human CAPRIN1, full length) (human, UniProt Q14444 1-709)
T1 construct: The host is told in the SPR methods only; the tag is named on the protein in the glycerol gradient; also called rhCAPRIN1; His-tagged CAPRIN1
T1 sequence (looked up): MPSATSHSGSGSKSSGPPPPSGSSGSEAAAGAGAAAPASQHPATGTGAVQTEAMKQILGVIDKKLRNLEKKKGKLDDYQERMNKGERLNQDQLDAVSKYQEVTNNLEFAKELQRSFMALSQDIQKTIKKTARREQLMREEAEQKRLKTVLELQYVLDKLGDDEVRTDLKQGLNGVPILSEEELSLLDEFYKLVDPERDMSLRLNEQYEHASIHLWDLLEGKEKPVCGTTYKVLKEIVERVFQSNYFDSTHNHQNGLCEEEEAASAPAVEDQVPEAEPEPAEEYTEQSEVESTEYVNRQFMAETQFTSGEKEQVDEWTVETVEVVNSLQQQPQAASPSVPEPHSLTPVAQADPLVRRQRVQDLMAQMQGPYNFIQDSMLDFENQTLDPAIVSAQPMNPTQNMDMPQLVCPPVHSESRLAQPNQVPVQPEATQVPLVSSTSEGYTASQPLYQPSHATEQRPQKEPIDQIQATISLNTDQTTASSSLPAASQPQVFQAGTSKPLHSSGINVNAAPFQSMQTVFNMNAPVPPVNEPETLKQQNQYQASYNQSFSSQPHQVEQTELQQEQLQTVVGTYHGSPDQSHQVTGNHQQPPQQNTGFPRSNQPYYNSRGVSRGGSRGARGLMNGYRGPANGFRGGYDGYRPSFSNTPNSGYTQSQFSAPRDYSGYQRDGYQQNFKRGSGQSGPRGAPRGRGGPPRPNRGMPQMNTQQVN
Assay: SPR; as a11, APP695 applied after incubation with compound 0152 (text: equimolar; legend: 0.1 µM)
Settings: both partners purified

B1: 10xHis-MBP-APP695 (full-length) (natural protein, human)
chain: LEVPTDGNAGLLAEPQIAMFCGRLNMHMNV[in this place about 40 residues]ANQPVTIQNWCKRGRKQCKTHPHFVIPYRCLVGEFVSDALLVPDKCKFLHQERMDVCETHLHWHTVAKETCSEKSTNLHDYGMLLPCGIDKFRGVEFVCCPLAEESDNVDSADAEEDDSDVWWGGADTDYADGSEDKVVEVAEEEEVAEVEEEEADDDEDDEDGDEVEEEAEEPYEEATERTTSIATTTTTTTESVEEVVRVPTTAASTPDAVDKYLETPGDENEHAHFQKAKERLEAKHRERMSQVMREWEEAERQAKNLPKADKKAVIQHFQEKVESLEQEAANERQQLVETHMARVEAMLNDRRRLALENYITALQAVPPRPRHVFNMLKKYVRAEQKDRQHTLKHFEHVRMVDPKKAAQIRSQVMTHLRVIYERMNQSLSLLYNVPAVAEEIQDEVDELLQKEQNYSDDVLANMISEPRISYGNDALMPSLTETKTTVELLPVNGEFSLDDLQPWHSFGADSVPANTENEVEPVDARPAADRGLTTRPGSGLTNIKTEEISEVKM[in this place about 100 residues]
notes: amyloid precursor protein, human, isoform APP695, full-length; The host is told in the SPR methods only; the tags are named in the glycerol gradient and the MBP blot; also called rhAPP; rhAPP695
B1 was tested, and the “fold decrease of koff with 0152 against without 0152” value was 10 fold, the “fold increase of kon with 0152 against without 0152” value was 3.5 fold and the “fold reduction of KD with 0152 against without 0152” value was 36 fold.
